The other results are listed elsewhere or left out. One pool of 16,384 single-stranded DNAs met each Rep nickase domain in vitro (3 µM enzyme, 1 h, 37 °C); shown is the middle of each 90-letter strand. Uncut reads are compared with the no-enzyme pool on a log2 scale; the lower, the more was cut; hits are not called. Counts are relative to all reads; values above 0 arise when much of the pool is cut.
Tests used:
Assay in all cases: uncleaved DNA left, log2 of reads against the no-enzyme library (log2 ratio); higher = less cleavage (more negative = more Rep cleavage of the k-mer); sequences stand for … in CTCGTCCG…ACCGGAGA
[1] = tested on: T1, Rep nickase domain of Muscovy duck circovirus
T1 sequence (Rep 1-111, printed without the tag): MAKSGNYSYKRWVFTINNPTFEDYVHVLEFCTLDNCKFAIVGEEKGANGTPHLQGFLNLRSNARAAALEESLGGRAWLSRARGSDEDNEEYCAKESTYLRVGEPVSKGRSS
Description: (§1)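 A pool of 90-nt single-stranded DNAs with seven random bases just before the constant AC of the nick site (name = the seven bases) was cut by 3 µM recombinant His6-SUMO-tagged Rep nickase domain (300 nM DNA, 50 mM HEPES pH 8.0, 50 mM NaCl, 1 mM MnCl2, 1 h, 37 °C, three replicates). Uncut DNA was amplified and sequenced.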

[2] = tested on: T2, Rep nickase domain of banana bunchy top virus
T2 sequence (Rep 1-94, printed without the tag): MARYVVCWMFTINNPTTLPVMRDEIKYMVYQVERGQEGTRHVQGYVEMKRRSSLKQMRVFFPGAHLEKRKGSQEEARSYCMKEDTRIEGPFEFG
Description: as §1

[3] = tested on: T3, Rep nickase domain of cabbage leaf curl virus
T3 sequence (Rep 1-116, printed without the tag): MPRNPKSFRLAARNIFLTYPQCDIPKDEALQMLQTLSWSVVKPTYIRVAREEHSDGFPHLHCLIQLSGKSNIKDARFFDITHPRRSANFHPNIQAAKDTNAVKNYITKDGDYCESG
Description: as §1

[4] = tested on: T4, Rep nickase domain of chickpea chlorotic dwarf virus
T4 sequence (Rep 1-124, printed without the tag): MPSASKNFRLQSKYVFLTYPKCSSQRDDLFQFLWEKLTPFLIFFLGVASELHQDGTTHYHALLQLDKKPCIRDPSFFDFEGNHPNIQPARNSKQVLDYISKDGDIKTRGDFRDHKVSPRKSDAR
Description: as §1

[5] = tested on: T5, Rep nickase domain of faba bean necrotic yellows virus
T5 sequence (Rep 1-98, printed without the tag): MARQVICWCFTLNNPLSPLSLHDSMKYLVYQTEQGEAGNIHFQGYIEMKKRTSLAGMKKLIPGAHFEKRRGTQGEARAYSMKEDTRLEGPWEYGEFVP
Description: as §1

[6] = tested on: T6, Rep nickase domain of maize striate mosaic virus
T6 sequence (Rep 1-117, printed without the tag): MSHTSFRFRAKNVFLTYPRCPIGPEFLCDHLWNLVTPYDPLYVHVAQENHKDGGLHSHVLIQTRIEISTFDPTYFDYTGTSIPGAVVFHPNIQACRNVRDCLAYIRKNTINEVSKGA
Description: as §1

[7] = tested on: T7, Rep nickase domain of porcine circovirus 2
T7 sequence (Rep 2-116, printed without the tag): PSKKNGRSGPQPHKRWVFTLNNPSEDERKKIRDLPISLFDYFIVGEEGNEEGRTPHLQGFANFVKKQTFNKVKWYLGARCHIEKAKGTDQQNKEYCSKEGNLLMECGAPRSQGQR
Description: as §1

[8] = tested on: T8, Rep nickase domain of tomato golden mosaic virus
T8 sequence (Rep 1-124, printed without the tag): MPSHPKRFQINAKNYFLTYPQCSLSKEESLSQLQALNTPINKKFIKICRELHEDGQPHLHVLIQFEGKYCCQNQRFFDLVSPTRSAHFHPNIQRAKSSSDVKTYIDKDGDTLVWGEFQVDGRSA
Description: as §1

[9] = tested on: T9, Rep nickase domain of tomato yellow leaf curl virus
T9 sequence (Rep 1-136, printed without the tag): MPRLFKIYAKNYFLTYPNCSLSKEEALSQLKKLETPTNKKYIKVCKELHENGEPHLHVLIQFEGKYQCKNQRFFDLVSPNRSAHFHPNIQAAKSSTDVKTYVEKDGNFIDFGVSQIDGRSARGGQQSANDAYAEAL
Description: as §1

[10] = tested on: T10, Rep nickase domain of wheat dwarf virus
T10 sequence (Rep 1-137, printed without the tag): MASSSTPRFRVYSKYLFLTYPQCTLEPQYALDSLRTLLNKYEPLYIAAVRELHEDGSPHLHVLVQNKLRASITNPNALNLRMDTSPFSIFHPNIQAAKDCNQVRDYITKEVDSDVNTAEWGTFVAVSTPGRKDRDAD
Description: as §1

Sequence | uncleaved DNA left (log2) [1] | uncleaved DNA left (log2) [2] | uncleaved DNA left (log2) [3] | uncleaved DNA left (log2) [4] | uncleaved DNA left (log2) [5] | uncleaved DNA left (log2) [6] | uncleaved DNA left (log2) [7] | uncleaved DNA left (log2) [8] | uncleaved DNA left (log2) [9] | uncleaved DNA left (log2) [10]
ACTGTAA | -0.155 | -0.041 | -0.138 | 0.103 | -0.0647 | 0.0977 | 0.0393 | 0.0158 | -0.0327 | 0.0646
GTAGCGA | -0.108 | -0.11 | -0.648 | -0.442 | -0.0408 | -0.803 | 0.103 | -0.187 | -0.0281 | -0.126
TAAATTC | -0.102 | -0.107 | -3.35 | -3.13 | -0.0702 | -1.87 | -0.0575 | -0.76 | -0.108 | -2.31
GCTCGTA | 0.0451 | 0.162 | 0.0574 | 0.295 | 0.0531 | 0.229 | 0.137 | 0.135 | 0.0203 | 0.152
CCGTCTC | -0.09 | -0.129 | -0.0209 | -0.26 | -0.0891 | 0.126 | -0.397 | -0.198 | -0.124 | -0.288
TTGGCAT | 0.15 | 0.137 | 0.584 | 1.49 | 0.0548 | 1.71 | 0.237 | 0.023 | 0.138 | 0.177
CATTCTA | -0.801 | -0.952 | -0.286 | -2.62 | -0.155 | -1.12 | -1.43 | -0.11 | -0.201 | -0.0918
TCGGCCC | 0.0867 | 0.037 | 0.177 | 0.134 | 0.041 | 0.0448 | -0.129 | -0.0578 | 0.0619 | 0.00557
ACTGAGT | 0.127 | 0.0352 | 0.0391 | 0.0114 | 0.0799 | -0.504 | -0.0111 | 0.12 | 0.109 | 0.0313
AACTTCC | -0.632 | -0.0919 | -0.22 | -1.02 | -0.143 | -0.647 | -3.21 | -0.128 | -0.0584 | -0.0508
GAAACTG | -0.0133 | -0.0211 | 0.0145 | 0.623 | 0.00393 | 1.36 | 0.0245 | 0.0166 | -0.0705 | 0.0448
CATGACT | -0.071 | -0.166 | -0.339 | -2.45 | -0.107 | -0.315 | -0.36 | -0.0668 | -0.125 | -0.161
CCAATTG | 0.0239 | -0.0359 | -0.512 | -0.517 | -0.0858 | -1.07 | 0.164 | -0.00865 | -0.0458 | -0.0264
GTTGACT | 0.113 | 0.0464 | 0.363 | 0.93 | 0.0102 | 1.65 | 0.138 | -0.0341 | 0.155 | 0.0943
CCTCATT | -0.223 | -0.0336 | -0.164 | -1.8 | -0.0936 | -0.764 | -0.964 | -0.19 | -0.136 | -0.152

Source: the supplement of paper PMC7826260
